# Results reported in paper PMC10726135.
# The other results are listed elsewhere or left out. At the low end of the ranking the order means little. The protein was read in a cell extract, so binding may be indirect.
# Biological target: T1, HNF4alpha2 (COS-7 nuclear extract) (UniProt P41235)
# T1 sequence: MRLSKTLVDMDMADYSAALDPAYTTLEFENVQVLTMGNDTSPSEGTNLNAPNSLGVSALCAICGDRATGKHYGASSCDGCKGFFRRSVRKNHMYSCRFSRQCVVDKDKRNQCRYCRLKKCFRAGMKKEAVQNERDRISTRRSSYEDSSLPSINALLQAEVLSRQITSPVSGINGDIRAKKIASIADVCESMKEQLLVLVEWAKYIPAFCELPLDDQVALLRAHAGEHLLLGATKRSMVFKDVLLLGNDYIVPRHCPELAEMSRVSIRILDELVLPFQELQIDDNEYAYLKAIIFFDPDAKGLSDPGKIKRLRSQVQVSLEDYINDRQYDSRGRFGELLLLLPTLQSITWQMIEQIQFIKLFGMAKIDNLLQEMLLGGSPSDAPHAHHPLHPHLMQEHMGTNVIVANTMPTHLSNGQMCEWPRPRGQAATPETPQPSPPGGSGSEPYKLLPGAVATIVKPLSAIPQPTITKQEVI
# Experiment: protein-binding microarray
# Details: COS-7 nuclear extract on double-stranded Agilent 4x180k PBM; binding buffer, salt, pH and temperature not given; high values mean tight binding; double strand, one strand shown; sequences stand for … in …GCCTAGGGAGATTAGAGTATCGGTCGA
row,Sequence,binding signal (log2 normalized intensity)
1,CTCAAGAAAGAGGTGGTTCTTTCTGAGTTG,0.826
2,GCCCCTGGGTCGTTGGTGCTCCCCCACCCT,4.52
3,CCCATTCCTTCTCACCGGGTGGAGCCTCAC,0.242
4,ATGGGAAGCCTCAGGAGTTGGAGGAACAGG,-1.19
5,GGGCAGTGTTTGCCCAGCTTGAATCACTCA,-0.581
6,GTCAAATTGGTGCTTTCATCCCCTGCATCC,2.05
7,AAATAACGAAGGCATTCTTAACAAAACCTG,-0.985
8,ACTGAGCTTTAGATAGCTGTTAAATGGAGT,0.814
9,GTACACAAAGGTATCAGGGCTCAGGAATGT,-1.18
10,GCTTCTCCTGGCTTTAGATATCAGAAATGC,0.123
11,AGGAGGAGGCCTAGGCAGTCCACAGACAAA,-1.07
12,GTAACCACAGTACTGTCTTTTTGCCACTAG,-1.11
13,CTCTCAACTCAGTGAGGGCTATTGACAAAG,-0.637
14,TGACTAGAGAGCAGGAGCCACCTGTCACTC,-1.24
15,TAGAATCTTAGGAAAGCACAGCTGATTGCT,-1.1
16,CCCTGCCACTCTTTTTTAGACTTTGACCTC,10
17,GATGGTGAGTTCTGTCCTTTGTCCCACATC,2.26
18,TCAATTTACCTCTGCTCCCCCTGCCCTTCG,4.23
19,CCTCTAGTGGCCCAGTGTCTCTGGGCGCTG,-1.2
20,TGCCCTCTTGTCCTTCCCCTTTTGTGTTTG,2.91
21,AGAAACCTCAAAGGTTAGGGGGATTCTGGC,-0.969
22,GGCTAAGGTCACCATGACCATAAACCACAA,-1.21
23,GGTGAACTCAGTCCTTTCAGGACACCTTCA,-1.07
24,GGATGCCCTTTGACCTCTGCTTCCTGCTAC,5.58
25,TGGGCTTGCCTAAGACATGCTCGCAGCTGC,-1.12

row,Sequence,binding signal (log2 normalized intensity)
1,TATCTGTTAGGGCCATTTGGTCTGTAGTGT,2.35
2,CAGAGATACTATTGATAACATCTAACAGCT,-1.29
3,GCAGGGGGCCAAGGGATACCCTGAGAGATC,-1.17
4,TATGACCTTTGCTTTTCAAGATTTTACCTA,2.14
5,AAAGAGGGCCCCATCATGTGTACAGAGCTG,-1.19
6,AACCTCCCTCCAAAATATCTCACTCCCACA,2.13
7,TTTGCAGTAGGATAAGTCCTTCCAAAGTCC,4.1
8,AAGCCATAGTTAACCCAGAAGACTGTCAAC,-1.21
9,GGACAAGGGGGAGGAGAGTACTGTCTCTTA,-1.08
10,AGCCACCAGTGCAAATATAAAAGGCTGTCA,-1.16
11,GCTCAGGGAATGTGGGTCCACATTCCTGAT,0.505
12,TTAGATATGGCTTATACTTGAGGTATGATG,1.64
13,CAAACACACAATATTGACATTCCAGCCTCC,-1.19
14,AGTGGAATGTGCCCTTTGACCTCTCTCTCC,7.71
15,TCCTGATGACTGCAGAGCTTGCTCTCACCA,-1.22
16,GTACTTTGTACATGGGAATAGACATTCCAG,2.04
17,AGCACAGGAAAGGGCTTTGGGGACTGAAGA,-1.07
18,CACTTGTTTGCACAAAGGGTTATGGGAAGT,1.2
19,CAGCGGGGTCAGAGAAACCTGGCTGCGAGT,-1.2
20,TAAGTAGCCAAGATTACAGCCACATGCTAA,-1.11
21,TTCTGAAGCCCTACAGCCCACAATTGCATG,-0.986
22,GAATGGAAACCCCTGTAAGTCCAAACAAAA,0.425
23,TCCCCTAGGTGATTAGAAGATAGCTTTAAA,-1.01
24,AGGTCCAACTGACATCTGGAAATGTTTGTA,0.961
25,ATATTCCTGGAATGACAAGAATTGGAACCC,2.03

row,Sequence,binding signal (log2 normalized intensity)
1,CAGGTATTTGCTCTGTGATAGCCTTTTACC,0.459
2,TAGAAAGTGGTTTCAAGGTGACCCCACGGA,4.66
3,AGGACTTTCAACCCTGTGATGACCCCATAC,4.66
4,AATGCAGGGAGCAGAGTCCCAAGCATCTCT,-1.21
5,GCCCCATCTATCTAGCCTGAAGTCTTAACC,0.868
6,GTCGCTTGGAAAAAAAAAAAAAAAAAAGAA,-1.07
7,ACCAGGGGCCAGCAAGAGGTGACCCCAGGG,3.91
8,CCTTCCAGCAGCAGGCCTGGGGGCAAAGTC,2.74
9,CCCAGGCTTATCTCACTCCAAAGGCTGTTT,-0.0712
10,GTGGGGAAAGAGCCCCTTTGTCCATTATCT,0.236
11,AGTGGAAATTGTCCTGCGGTTGGCTCAGGC,-0.952
12,GTTACAGTGGAGAAACCTGACAGACTGGAC,-0.871
13,AAGATAGAGGCTTTAGCAATAAATTCTGTT,-0.871
14,CTGTGTTTTGCCCCTGCAGAGTTTTTTACT,0.931
15,GACAATGGGAGACATTCCTTCAGCGTGAAC,-0.649
16,TCCATCTAAATGGCAATGGCTGCAGCTCTT,-1.08
17,TCAAAGTGTCAGTCCAGAGTTTGTGGCTCC,1.08
18,CGGACAGGTAACGTAAACAAGTAAGGAAGA,-1.19
19,TTATATTGAATTCCTGGAAATCCCGAAATA,-1.17
20,TAGGGTAGGGTTAGGGTTAGGGGTTAGGGG,-0.863
21,TAACTTTTGTCTCTGGAGGGATCAGGTCTT,1.23
22,AATCCCAGCTCGTGGGCATGCCTCCCAGAG,-1.13
23,CAGCAGTGTACTTGAGCTTCCAGTTAAGCA,-0.71
24,AATTTCCAACAAATGAAACTAAAGGCACCT,-1.1
25,GGTCACATGCCTAGGTAAGCCCACTAGGGA,-1.07

row,Sequence,binding signal (log2 normalized intensity)
1,CCTGCCAACTCCACGCCCGCCGCCAGGTGG,-1.1
2,GGGGGGTGTTATCTCTGATGCCCTTTGGCC,6.37
3,AGGCACTTAGCAAATATTTACTGAATGAAT,-1.19
4,ACACCTGTTCTAATCAGTAGCTCACAAATA,-1.11
5,CTTCAAAGGTCGTGTGCTTATCACATCTAT,1.12
6,GGTCACATAGCCAGTAAATCATGGATCTGT,-0.415
7,AACATCAAATACCTCCAAGAGGTTTTAGGC,-0.807
8,TCAGTCTGGTTGAGGCAAGCAAAAGCCAAG,-0.985
9,CCCCTGCCACTTTCACAAATCATTACTATC,-0.447
10,GTATCCCAGGGACTTACTCAACTAGCTCCA,-1.12
11,GTGGGAGAGCAAGGGTCAAGGGTCATTTGT,6.7
12,GAGGAACTCCAGAACCAAAGTCCTAGAGTC,-1.02
13,CCTAAGGGCACCCTTCCTGCTTCCAGGCTT,-1.03
14,TTGGAGATCTGAACTCAAGCTCTTAAAGAA,-1.19
15,TCAGAAGCTGGGAGACCACTGGTGTAAGCT,-1.13
16,TTGGCTTGGTTCCACATCAGAGAGTTCAAA,0.629
17,GGTCACAGAAAGTGACGTGCAGAGGAGCAA,-0.773
18,TTACCTTGACCAAAGTACAGTAATTTCACT,1.02
19,GGGCAGGGACTTTGCCCTTTTTAATGTTTC,5.08
20,GAGCCTTCAAAGGAAAGCAGGTGTTCACCT,-0.111
21,CCATGCAGCCAGGGTCAGGAGAAGCAGAAC,-1.12
22,ACCCATCATGAGTAGGTTTACTAAAGGAAG,-1.1
23,TTAAAAAGCTGCAATGGCTTCACAATTCCT,-1.13
24,GACAAGCAGTGACCAAGGGTCAGTTTGAAA,2.65
25,TAACAGGATTTTTGCTGAAGACAGGCCAGG,-0.417

row,Sequence,binding signal (log2 normalized intensity)
1,ATTACATATTAACCTTTGCCCCAGCTGTCA,5.74
2,CATTCTACCCCTGTGGTTGACCTTTAGTCT,7.73
3,CAGCTGAACCATATTCTTTACATTTATTAG,1.06
4,GACCTGTCAAGCAATGATCTTCATGAACTT,1.66
5,TTTGCTGTGGTAGGCTGTCCTGTGCAATGG,1.76
6,TTTATCTCCCACATGCTGTCTAGGCCAGAG,-0.262
7,CACCCCCTATCTTGTGTAATAACGAGACCT,1.5
8,TGGATACCCTTCCCCCCAAGGCTTCCAATC,3.99
9,TTAACACAAGTTATTACCGTGATGTTCGTT,1.53
10,GCTGACTAACAAGCTGCCAAACTCTCACTC,-1.07
11,TGCCCTAAGCCACAGACAAATATTTGCTGT,-0.493
12,AAACAAATACCATCATCTCAGGGAGTGCAA,-1.03
13,TCTGATTAGGTGGATTCGCCCAGCATAGCA,-1.16
14,CCCCAGCCTGTTTCCCTAGCTTATATCCCC,2.7
15,CTGAGCCCTAAGAAATCTCCAAGTCAAACA,-1.18
16,ACCCCACACACCAAAACTCTCTCTCTGTGT,0.575
17,GAGAGAGCAGGTTGAGTATCTACCACATAC,-1.07
18,AGAGACTATGTGGTTTTGTAAATATAGGAT,0.295
19,AGGTCTTGGTTGTTCTGTTTAACAGAGATT,1.65
20,CCAGTTGGTTGCTAAGAGACAGCTCCACAG,-1.3
21,TTCTGGCCAGGCAGAGCAGGTTCTCAGGCC,-1.09
22,ATAAAAAGATAATGCTGGACATGACTGCAC,-1.17
23,ATCAGTCCAGGAGGGTCACAAGTCCCTGTC,0.535
24,CACGTGAGAGGGTCGTGATCGATTGAGCAA,-0.495
25,GAACTAATTTGTCTTTTCTCCCCCGATAAG,4.51

row,Sequence,binding signal (log2 normalized intensity)
1,GAGGCTTTGAGTCATTGAGGCTTTGCCTTA,0.1
2,TCTTTACACCATTGCAAGGATTCCAAATTT,-0.162
3,CAACCAAGGTTGCAGAGTGTCCCACTTCAG,-1.03
4,CTAGGATTCTTGCATGATCGATCACACAGA,0.145
5,GCCCCAGTCCCCCGGACCAGGCCGGGTCAC,4.11
6,ATCTCTTTGCAATGTAAACATCAAGGAAGA,0.275
7,CCCCGCCCGCAGCCCAGTCTTGGCCCCACC,6.22
8,CCTAAATCTAAGCTGGACTTTGAACTTCAT,8.99
9,TTCTTATCTCACACAGTACTTTGTACATGG,1.75
10,AAATAGATAAGTCCCTAAGAGGAATAGTCA,-1.08
11,GAGGGAGCCAGGTTATGCAGAGCTTAGTTT,-1.19
12,CCTTTTATTCAAACAGAGGACAGTTGTGTT,1.98
13,CACTGATAAAACTGGAATAAAGCAGTCCCT,-1.15
14,CTTCCAGTCCACAGTCCAGTGACTATCTGC,0.852
15,TATGGAGAGGAAAGATGGGGATATAATCAT,-1.01
16,TAAGTAAACTGTTCAAGACTTTCAGCCAAC,-1.11
17,GTCCAGAGTAGGCTTGCAAGACTGCATTCC,-1.21
18,AGCAAGACTGCAAAATAGACAAACAGCAAT,-1.19
19,CTTTGTTTGGAAAAGATTAAGTTATCCATG,1.51
20,GGAAGGGCTGGAGACGCAGGAGATGAAAAA,-0.886
